Laboratory results reported in PubChem BioAssay AID1508624 (National Center for Advancing Translational Sciences (NCATS), 2021).
About 120 (0.25%) of roughly 48,000 compounds were called active. About 4% were inconclusive and are not listed. The call rests on the fitted dose curve; in most records, active means well fitted activation curve with a large enough effect; inconclusive means small, poorly fitted or top-dose-only effect, or another doubt; inactive means no such curve, though single readings can be large or run the other way. The list shows a part of the results.

Assay: Primary qHTS for Identification of Small Molecule Activators of Huntingtin-Antisense Promoter Activity; further: nearly all actives have a fitted effect of over 55% in size
Settings: HEK293 HTT-AS promoter firefly luciferase reporter, 24 h; series mostly up to 57.5 µM; activity change, positive = activation: at the top concentration
Summary of the method: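 HEK293 Fluc reporter, 2,500 cells/well, 24 h pre-culture; cpds up to 57.5 uM final, 24 h 37 degrees C; Dual-Glo, 10 min RT; normalized vehicle = 0%, zero RLU = -100%.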

Activity change, positive = activation, inactive:
COc1c(C)c2c(c(O)c1C/C=C(\C)CCC(=O)OCCN1CCOCC1)C(=O)OC2 -39%, Cc1ccc(CN(C(=O)COc2ccc(Cl)c(C)c2)c2ccccn2)o1 -17.4%, C[C@]12CCC(=O)C=C1C=C[C@@H]1[C@@H]2CC[C@@]2(C)[C@H]1CC[C@@]21CCC(=O)O1 -33.1%, O=C(CN1C(=O)COc2ccc(S(=O)(=O)N3CCOCC3)cc21)N1CCN(c2cccc(C(F)(F)F)c2)CC1 -15.6%, Cc1oc2ncn(C)c(=O)c2c1C(=O)Nc1ccccn1 4.52%, CN(C)S(=O)(=O)c1ccc(C(=O)NCCS(=O)(=O)N2CCN(c3ccccc3)CC2)cc1 -5.21%, Cc1ccc(-c2cc(-c3ccc4c(c3)NC(=O)CO4)nc3c2COc2ccc(C)cc2-3)cc1 -2.76%, COc1ccc(OC)c(CNC(=O)c2cc3cc4ccc(OC)cc4nc3o2)c1 6.9%, Cc1cc(NC(=O)c2ccccc2Cl)ccc1NC(=O)c1ccccc1 23.7%, COc1ccc(-c2noc(COc3cc(C)c(Br)c(C)c3)n2)cc1OC 16.8%, COC(=O)[C@@H](N)Cc1ccc(O)c(O)c1 -14%, Cc1ccc(C(=O)/C=C/c2cn(CC(O)CN3CCc4ccccc43)c3ccccc23)cc1 (configuration not stated) -1.15%, Cc1cc(-n2c(C)nc3ccccc3c2=O)ccc1NC(=O)c1ccc(C)c([N+](=O)[O-])c1 -36.6%, Brc1ccc(-c2nnc3sc(CN4CCCCC4)cn23)cc1 -1.01%, Cc1ccccc1-c1nnc(CN2CCN(c3cccc(C)c3C)CC2)o1 -8.22%, COc1cccc(NC(=O)CSc2nc3c([nH]c4ccccc43)c(=O)n2-c2ccccc2)c1 -25.1%, CCCN1C(=O)c2[nH]nc(-c3ccccc3O)c2C1c1cccc(OCc2ccccc2)c1 (configuration not stated) -29.5%, Cc1ccc(NC(=O)CSc2nnc(C)n3c2cc2sccc23)c(C)c1 -3.78%, CCOc1ccccc1NC(=O)CSc1nnc(N)s1 7.61% [at 11.5 µM, percent change from vehicle, -100% = no light], COCCNC(=O)C(=O)NCC(c1cccnc1)N1CCN(c2ccccc2OC)CC1 (configuration not stated) -11.3%, CC(C)(C)NC(=O)c1cnn(-c2ccccc2)c1C1CCN(C(=O)OC(C)(C)C)CC1 -8.28%, O=C(Cn1ncc2c3ccccc3n(Cc3ccccc3F)c2c1=O)NC1CCCCCC1 -11.6%, O=C(NCc1ccccc1Cl)c1cc2c(s1)-c1ccccc1SC2 3.44%, COc1cc(C(=O)NCC(c2cccnc2)N2CCc3ccccc3C2)cc(OC)c1OC (configuration not stated) -14.5%, CCC(=O)Nc1ccccc1-c1nc2ccccc2n(CC(=O)c2ccc(C)c(C)c2)c1=O -11.2%, CN1CCN(C(=O)c2ccc3c(c2)N(Cc2c(F)cccc2Cl)C(=O)c2ccccc2S3)CC1 -29.4%, CCc1sc(Nc2ccc(Cl)cc2)nc1-c1cc2cccc(OC)c2oc1=O -1.59%, COc1ccc(-c2noc(N3CCN(c4cccc(Cl)c4)CC3)n2)cc1OC -3.02%, CC(C(=O)Nc1ccc(F)c(Cl)c1)N1Cc2ccccc2C1=O (configuration not stated) -22.6%, Cc1cc(OCC(=O)Nc2cc(-c3nc4ccccc4[nH]3)ccc2C)ccc1Cl -26.1%, CCSc1oc(-c2ccc(F)cc2)nc1S(=O)(=O)c1ccc(C)cc1 -25.4%, CCOc1ccc(C(=O)CSc2nnc3cc(C)c4ccccc4n23)cc1 -2.06%, Cc1ccccc1C(=O)Nc1nnc(SCc2cc(=O)n3ccccc3n2)s1 -7.16%, CCOc1cc(C(=O)Nc2nnc3n2CCS3)cc(OCC)c1OCC -10.7%, COc1ccccc1CNC(=O)COc1cc(=O)n(C)c2ccccc12 -1.7%, CCCCC(CC)CNC(=O)c1ccc2c(=O)n(CCOC)c(=O)[nH]c2c1 (configuration not stated) -25%, CC(C)(C)c1ccc(C(=O)NCC(c2cccs2)S(=O)(=O)c2ccc(F)cc2)cc1 (configuration not stated) -58.4%, Cc1ccc(N(CC(=O)NCC(C)c2ccccc2)S(=O)(=O)N(C)C)cc1 (configuration not stated) -15.1%, CC(=O)c1cccc(S(=O)(=O)N2CCN(c3ccccc3F)CC2)c1 -20.7%, Cc1ccc(CN2CCC(CNC(=O)c3cc4ccc5cccnc5c4[nH]3)CC2)cc1 -10%, Cc1cc(S(=O)(=O)C(CNC(=O)COc2ccccc2)c2cccs2)ccc1F (configuration not stated) 3.35%, COc1ccc(NC(=O)CCN2CCN(CCO)CC2)c(OC)c1 14.8% [at 11.5 µM, percent change from vehicle, -100% = no light], CS(=O)(=O)Oc1ccc2c(NC(N)=O)c(C(=O)c3ccc(Cl)cc3Cl)oc2c1 19.1%, O=C(Nc1ccc2nc(SCc3ccccc3)sc2c1)c1cccc(F)c1 -10.5%, COc1ccc(OCCSc2nc(C)c(Cc3ccccc3)c(=O)[nH]2)cc1 -9.28%, COc1ccccc1Cn1cc(C(=O)c2ccc(Cl)cc2)c(=O)c2cc3c(cc21)OCCO3 -14.1%, COc1ccc(Oc2nc3c(c(=O)n(C)c(=O)n3C)n2Cc2ccccc2Cl)cc1 -2.3%, O=S(=O)(NCCc1csc2nc(-c3ccc(Cl)cc3)nn12)c1ccc(Oc2ccccc2)cc1 -32.2%, CC(=O)c1cccc(NC(=O)CSc2nnc3ccc(-c4ccc(C)cc4)nn23)c1 0.521%, Cc1cc2nc(-c3ccc(Cl)cc3)cc(C(F)(F)F)n2n1 -22.6%, Nc1ccncc1N -9.12%, Cc1ccccc1-c1nc(C(N)=O)c2c(n1)n(-c1ccc3c(c1)OCO3)c(=O)n2C -17.8%, CN(C)S(=O)(=O)c1ccc2c(c1)N(CC(=O)NCc1cccc(Br)c1)C(=O)CS2 -5.18%, O=C(NCc1ccco1)C1CCN(C(=O)N2CCOc3ccc(Cl)cc32)CC1 -1.49%, Cc1cc2c(cc1S(=O)(=O)CCC(=O)NC1CCC(C)CC1)OCC(=O)N2 (configuration not stated) -8.04%, Cc1ccc(-c2nnc(NC(=O)c3ccc4c(c3)OCCO4)o2)c(C)c1 3.6%, O=C1CC(c2nnc(Cc3ccc(Cl)cc3)o2)CN1c1ccccc1 (configuration not stated) -15.8%, COc1ccccc1-c1nnc2n(CCc3ccccc3)c(=O)c3ccccc3n12 -19.5%, Cc1ccc(C)c(Cn2c(=O)n(Cc3ccc(C(=O)NC4CCN(Cc5ccccc5)CC4)cc3)c(=O)c3ccccc32)c1 -15.9%, CCN(CC)CCNC(=O)c1ccc2nc(-c3ccccc3)c(-c3ccc(CN4CCC(n5c(=O)[nH]c6ccccc65)CC4)cc3)nc2c1 -25.5%, Cc1ccc(N2CCN(C(=O)NCc3noc4ccccc34)CC2C)cc1 (configuration not stated) -12.4%, Cc1cccc(C(=O)Nc2ccc(-c3nc4cc(C(C)C)ccc4o3)cc2)c1 0%, COc1ccccc1N1CCN(C(=O)c2cnn(-c3ccc(C)c(C)c3)c2C2CCN(C(=O)OC(C)(C)C)CC2)CC1 -40.7%, COc1ccc(S(=O)(=O)n2nc(C)c(S(=O)(=O)N3CCCCCC3)c2C)cc1OC -14.2%, CCCOc1ccc(C(=O)N(Cc2cccs2)c2ccc(C)cc2)cc1 -20.3%, COc1ccc(Cl)cc1S(=O)(=O)N1CCN(Cc2cccc(F)c2)CC1 -33%, CCOC(=O)c1c(C)oc2ncnc(NCCCN3CCN(c4cc(C)ccc4C)CC3)c12 -18.8%, COc1ccc(-c2c3c(nc4sc(C(=O)Nc5ccc(F)cc5)c(N)c24)CC(C)(C)CC3=O)cc1 16.8%, CCOC(=O)c1ccc(NC(=O)C2CCN(C(=O)N3CC(C)Oc4ccc(C)cc43)CC2)cc1 (configuration not stated) -38.2%, CCc1sc(Nc2ccc(C)cc2Br)nc1-c1cc2cccc(OC)c2oc1=O -19.3%, CCOC(=O)CSc1nc2c(sc3ccccc32)c(=O)n1Cc1ccc(C)cc1 -8.68%, CC(=O)NCCNc1nc2c(-c3ccc(C)cc3)nnn2c2ccccc12 14.6%, CCCN(CCC)C(=O)Cn1c(=O)n(-c2ccc(C)cc2)c(=O)c2ccc(C(=O)NCc3ccccc3Cl)cc21 -13.7%, CNC(=O)C1CCN(Cc2cc3ccccc3n2Cc2ccccc2C)CC1 -17.4%, Cc1ccc(-c2cn3c(n2)sc2cc(C(=O)NCc4cccs4)ccc23)cc1 4.27%, CCCCNC(=O)Cn1c(=O)cc(C)c2c(C)nn(-c3ccc(CC)cc3)c21 6.38%, CCC1CN(C(=O)N2CCC(C(=O)NCCc3ccc(C)cc3)CC2)c2ccccc2O1 (configuration not stated) -33%, Cc1oc(-c2ccccc2)nc1CSc1nnc(C)n2c1cc1sccc12 -16.7%, CCOCCCNC(=O)CCC(=O)NNc1nc2ccccc2c2nc(-c3ccccc3)nn12 -12.1%, O=C(CCc1nnc2n(Cc3ccccc3Cl)c(=O)c3ccccc3n12)Nc1ccc(F)c(F)c1 -2.38%, O=C(NCc1cccc(Br)c1)C1CCN(C(=O)c2sccc2-n2cccc2)CC1 -22.1%, Cc1ccc(-n2nc(CO)c(C(=O)NCC(c3ccccc3)c3ccccc3)n2)cc1 2.39%, COc1cccc(-n2cc(C(=O)Oc3cccc(C(F)(F)F)c3)c3ccccc3c2=O)c1 -17.3%, CC(=O)N1c2ccccc2CC1C(=O)N1CCN(c2cccc(Cl)c2)CC1 (configuration not stated) -12.8%, CC[C@H](NC(=O)[C@H](C)NC)C(=O)N1C[C@@H](O)C[C@H]1Cc1c(-c2[nH]c3cc(F)ccc3c2C[C@H]2C[C@H](O)CN2C(=O)[C@H](CC)NC(=O)[C@H](C)NC)[nH]c2cc(F)ccc12 -33.1%, O=C(CC1C(=O)N(c2ccc(F)cc2)C(=O)N1Cc1ccc2c(c1)OCO2)Nc1ccc(F)cc1 (configuration not stated) -1.84%, CCOc1ccc(OCC)c(NC(=O)C(NS(=O)(=O)c2ccc(Br)s2)c2ccccc2)c1 (configuration not stated) -25.9%, COc1cccc(CNC(=O)CN2C(=O)CCCc3ccccc32)c1OC -8.37%, CCOC(=O)c1cnc2c(C)cccc2c1NCCc1ccc(OC)c(OC)c1 -11.3%, CCc1ccc(NC(=O)c2ccc3oc(=O)n(Cc4ccccc4)c3c2)cc1 -36.4%, Cc1ccc(C)c(CN2C(=O)c3ccccc3S(=O)(=O)c3ccc(C(=O)N4CCCC4)cc32)c1 -24.9%, CCN(c1ncnc2c1cnn2-c1cc(Cl)ccc1C)C1CCCCC1 0%
